# Test results: the supplement of paper PMC12217912
# The other results are listed elsewhere or left out. The full chains were built here from the parent and the listed change. Inactive controls read about 0.05.
# B1: TEV protease; numbered along this chain (parent)
# chain: MGESLFKGPRDYNPISSSICHLTNESDGHTTSLYGIGFGPFIITNKHLFRRNNGTLVVQSLHGVFKVKDTTTLQQHLVDGRDMIIIRMPKDFPPFPQKLKFREPQREERICLVTTNFQTKSMSSMVSDTSCTFPSGDGIFWKHWIQTKDGQCGSPLVSTRDGFIVGIHSASNFTNTNNYFTSVPKNFMELLTNQEAQQWVSGWRLNADSVLWGGHKVFMVKPEEPFQPVKEATQL
# Variants of: B1
# Assay: raw area under fraction-flipped curve 0-4 h after induction (AUC4h, not background-subtracted), DNA-recorder readout of cleavage of the substrate (dimensionless); higher = more cleavage of the substrate by the protease variant
# Details: temperature: 34 °C; time window: 0-4 h after rhamnose induction
# 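Further: Bxb1 expression induced with 0.2% (w/v) L-rhamnose at OD600 near 0.5, cultures sampled hourly, flipped fraction per protease–substrate barcode pair counted by paired-end Illumina sequencing.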
variant,measurement,value
MGESLFKGPRDYNPISSSICHLTNESDGHTTSLYGIGFGPFIITNKHLFRRNNGTLVVQSLHGVFKVKDTTTLQQHLVDGRDMIIIRMPKDFPAFPQKLKFREPQREERICLVTTNFQTKSMSSMVSDTSCTFPSGDGIFWKHWIQTKDGQCGSPLVSTRDGFIVGIHSASNFTNTNNYFTSVPKNFMELLTNQEAQQWVSGWRLNADSVLWGGHKVFMVKPEEPFQPVKEATQL [P94A],area with substrate ENLDFQS,0.0649
same,area with substrate ENLFFQS,0.115
same,area with substrate ENLHFQS,0.0638
same,area with substrate ENLRFQS,0.0757
same,area with substrate ENLWFQS,0.0628
MGESLFKGPRDYNPISSSICHLTNESDGHTTSLYGIGFGPFIITNKHLFRRNNGTLVVQSLHGVFKVKDTTTLQQHLVDGRDMIIIRMPKDFPWFPQKLKFREPQREERICLVTTNFQTKSMSSMVSDTSCTFPSGDGIFWKHWIQTKDGQCGSPLVSTRDGFIVGIHSASNFTNTNNYFTSVPKNFMELLTNQEAQQWVSGWRLNADSVLWGGHKVFMVKPEEPFQPVKEATQL [P94W],area with substrate ENLDFQS,0.0464
same,area with substrate ENLFFQS,0.0841
same,area with substrate ENLHFQS,0.0728
same,area with substrate ENLIFQS,0.0835
same,area with substrate ENLKFQS,0.0744
same,area with substrate ENLLFQS,0.116
same,area with substrate ENLNFQS,0.0627
same,area with substrate ENLPFQS,0.0527
same,area with substrate ENLRFQS,0.0768
same,area with substrate ENLSFQS,0.0566
same,area with substrate ENLVFQS,0.092
MGESLFKGPRDYNPISSSICHLTNESDGHTTSLYGIGFGPFIITNKHLFRRNNGTLVVQSLHGVFKVKDTTTLQQHLVDGRDMIIIRMPKDFPPFPQKYKFREPQREERICLVTTNFQTKSMSSMVSDTSCTFPSGDGIFWKHWIQTKDGQCGSPLVSTRDGFIVGIHSASNFTNTNNYFTSVPKNFMELLTNQEAQQWVSGWRLNADSVLWGGHKVFMVKPEEPFQPVKEATQL [L99Y],area with substrate ENLDFQS,0.0551
same,area with substrate ENLEFQS,0.0549
same,area with substrate ENLFFQS,0.0715
same,area with substrate ENLHFQS,0.0583
same,area with substrate ENLKFQS,0.0721
same,area with substrate ENLLFQS,0.0584
same,area with substrate ENLNFQS,0.0636
same,area with substrate ENLPFQS,0.055
same,area with substrate ENLQFQS,0.0513
same,area with substrate ENLRFQS,0.0685
same,area with substrate ENLSFQS,0.06
same,area with substrate ENLTFQS,0.0606
same,area with substrate ENLVFQS,0.0936
same,area with substrate ENLWFQS,0.0564
MGESLFKGPRDYNPISSSICHLTNESDGHTTSLYGIGFGPFIITNKHLFRRNNGTLVVQSLHGVFKVKDTTTLQWHLVDGRDMIIIRMPKDFPPFPQKLKFREPQREERICLVTTNFQTKSMSSMVSDTSCTFPSGDGIFWKHWIQTKDGQCGSPLVSTRDGFIVGIHSASNFTNTNNYFTSVPKNFMELLTNQEAQQWVSGWRLNADSVLWGGHKVFMVKPEEPFQPVKEATQL [Q75W],area with substrate ENLDFQS,0.0607
same,area with substrate ENLEFQS,0.0763
same,area with substrate ENLFFQS,0.0551
same,area with substrate ENLHFQS,0.0416
same,area with substrate ENLIFQS,0.0605
same,area with substrate ENLKFQS,0.0535
same,area with substrate ENLMFQS,0.0535
same,area with substrate ENLNFQS,0.0558
same,area with substrate ENLPFQS,0.0497
same,area with substrate ENLQFQS,0.0217
same,area with substrate ENLRFQS,0.0604
same,area with substrate ENLSFQS,0.041
same,area with substrate ENLVFQS,0.0653
MGESLFKGPRDYNPISSSICHLTNESDGHTTSLYGIGFGPFIITNKHLFRRNNGTLVVQSLHGVFKVKDTTTLQQHLVDGRDMIIIRMPKDFPPFPQKLYFREPQREERICLVTTNFQTKSMSSMVSDTSCTFPSGDGIFWKHWIQTKDGQCGSPLVSTRDGFIVGIHSASNFTNTNNYFTSVPKNFMELLTNQEAQQWVSGWRLNADSVLWGGHKVFMVKPEEPFQPVKEATQL [K100Y],area with substrate ENLDFQS,0.0431
same,area with substrate ENLFFQS,0.0786
same,area with substrate ENLHFQS,0.08
same,area with substrate ENLIFQS,0.0887
same,area with substrate ENLPFQS,0.063
same,area with substrate ENLQFQS,0.052
same,area with substrate ENLRFQS,0.127
same,area with substrate ENLWFQS,0.0562
MGESLFKGPRDYNPISSSICHLTNESDGHTTSLYGIGFGPFIITNKHLFRRNNGTLVVQSLHGVFKVKDTTTLQQHLVDGRDMIIIRMPKDFPPFPQKLGFREPQREERICLVTTNFQTKSMSSMVSDTSCTFPSGDGIFWKHWIQTKDGQCGSPLVSTRDGFIVGIHSASNFTNTNNYFTSVPKNFMELLTNQEAQQWVSGWRLNADSVLWGGHKVFMVKPEEPFQPVKEATQL [K100G],area with substrate ENLDFQS,0.0663
same,area with substrate ENLEFQS,0.0671
same,area with substrate ENLFFQS,0.084
same,area with substrate ENLKFQS,0.0702
same,area with substrate ENLNFQS,0.064
same,area with substrate ENLPFQS,0.0295
same,area with substrate ENLQFQS,0.0685
same,area with substrate ENLRFQS,0.0735
same,area with substrate ENLSFQS,0.0119
same,area with substrate ENLVFQS,0.0913
same,area with substrate ENLWFQS,0.0435
MGESLFKGPRDYNPISSSICHLTNESDGHTTSLYGIGFGPFIITNKHLFRRNNGTLVVQSLHGVFKVKDTTTLQQHLVDGRDMIIIRMPKDFPPFPQKLKFREPLREERICLVTTNFQTKSMSSMVSDTSCTFPSGDGIFWKHWIQTKDGQCGSPLVSTRDGFIVGIHSASNFTNTNNYFTSVPKNFMELLTNQEAQQWVSGWRLNADSVLWGGHKVFMVKPEEPFQPVKEATQL [Q105L],area with substrate ENLDFQS,0.0585
same,area with substrate ENLEFQS,0.0721
same,area with substrate ENLFFQS,0.107
same,area with substrate ENLGFQS,0.0669
same,area with substrate ENLHFQS,0.0753
same,area with substrate ENLIFQS,0.0834
same,area with substrate ENLKFQS,0.0841
same,area with substrate ENLLFQS,0.0735
same,area with substrate ENLMFQS,0.0613
same,area with substrate ENLPFQS,0.0612
same,area with substrate ENLQFQS,0.0526
same,area with substrate ENLVFQS,0.0832
same,area with substrate ENLWFQS,0.0663
MGESLFKGPRDYNPISSSICHLTNESDGHTTSLYGIGFGPFIITNKHLFRRNNGTLVVQSLHGVFKSKDTTTLQQHLVDGRDMIIIRMPKDFPPFPQKLKFREPQREERICLVTTNFQTKSMSSMVSDTSCTFPSGDGIFWKHWIQTKDGQCGSPLVSTRDGFIVGIHSASNFTNTNNYFTSVPKNFMELLTNQEAQQWVSGWRLNADSVLWGGHKVFMVKPEEPFQPVKEATQL [V67S],area with substrate ENLDFQS,0.0627
same,area with substrate ENLEFQS,0.0566
same,area with substrate ENLFFQS,0.0625
same,area with substrate ENLGFQS,0.0565
same,area with substrate ENLHFQS,0.062
same,area with substrate ENLIFQS,0.0838
same,area with substrate ENLKFQS,0.0656
same,area with substrate ENLLFQS,0.0441
same,area with substrate ENLMFQS,0.0637
same,area with substrate ENLNFQS,0.0627
same,area with substrate ENLQFQS,0.0623
same,area with substrate ENLRFQS,0.055
same,area with substrate ENLSFQS,0.0636
same,area with substrate ENLVFQS,0.0881
same,area with substrate ENLWFQS,0.0727
MGESLFKGPRDYNPISSSICHLTNESDGHTTSLYGIGFGPFIITNKHLFRRNNGTLVVQSLHGVFKVKDTTTLQQHLVDGRDMSIIRMPKDFPPFPQKLKFREPQREERICLVTTNFQTKSMSSMVSDTSCTFPSGDGIFWKHWIQTKDGQCGSPLVSTRDGFIVGIHSASNFTNTNNYFTSVPKNFMELLTNQEAQQWVSGWRLNADSVLWGGHKVFMVKPEEPFQPVKEATQL [I84S],area with substrate ENLDFQS,0.0638
same,area with substrate ENLEFQS,0.0677
same,area with substrate ENLFFQS,0.0598
same,area with substrate ENLHFQS,0.0595
same,area with substrate ENLIFQS,0.0612
same,area with substrate ENLKFQS,0.0598
same,area with substrate ENLLFQS,0.0617
same,area with substrate ENLPFQS,0.0616
same,area with substrate ENLRFQS,0.0646
same,area with substrate ENLSFQS,0.0632
same,area with substrate ENLWFQS,0.0535
